Patent US5658883A, “Biologically active TGF-β1 peptides” (Celtrix Pharmaceuticals, Inc., priority 1995, dated 1997)
Not every detail of the peptide structures is certain; ends, links or a residue may be inferred. Some entries repeat one wording, which the source may state once for all of them. Bridge positions count the residues as written; N and C are the ends. Ends that are not written are not given here. Peptide text beside a SMILES is read from it. I, II: the chains in the order shown.

Experiments:
[1] = tested on: Mink lung epithelial cells (Mv1Lu CCL64); assay: Mink lung epithelial cell proliferation inhibition assay; type: cell-based; details: for ED50 (half-maximal inhibition of cell proliferation) / ED50 / activity in words: mink lung epithelial cells; for ED50 (half-maximal inhibition of cell proliferation): 4 days, acid phosphatase readout; for inhibition of proliferation of mink lung epithelial cells: at concentrations up to 10 μM
Method: TGF-β is known to inhibit proliferation of mink lung epithelial cells. The mink lung epithelial cell assay was thus used to test the ability of the peptides to mimic the biological activity of TGF-β. Mink lung epithelial cells (ATCC, Rockville, Md., Mv1Lu CCL64) were plated at 0.5-1.0×10^6 cells/plate in 100 mm culture plates and grown in Eagle's minimal essential medium (MEM) supplemented with 50 units/ml penicillin, 50 μg/ml streptomycin, nonessential amino acids, L-glutamine, and 10% fetal bovine serum (FBS). Cells were passaged while the cell density was subconfluent. Cells were detached with trypsin, collected by centrifugation at 800×g for 2 min, and resuspended in the culture medium at 20,000 cells/ml. The cells were plated in 96-well microtiter plates at 1000 cells (50 μl)/well. Peptides TGF-β116-31, TGF-β116-47, TGF-β216-31, TGF-β216-47 in monomeric and dimeric forms were lyophilized in the presence of sterile bovine serum albumin (BSA) carrier. Samples (50 μl) of the peptides were dissolved in the cell culture medium and added to the wells in triplicate. Recombinant human TGF-β2 was used as the standard. The plates were incubated under a 5% CO2 /95% (V/V) air atmosphere at 37° C. for 4 days. The number of cells/well in this assay is proportional to the activity of the constitutively expressed enzyme, acid phosphatase. To measure acid phosphatase activity, the wells were rinsed with phosphate-buffered saline (PBS), filled with 100 μl of 0.1M sodium acetate, pH 5.5/0.1% Triton X-100/100 mM p-nitrophenyl phosphate, and the plates were incubated at 37° C. for 2 hr. Ten μl of 1.0N NaOH was added to each well, and after 20 min at room temperature, the absorbance at 405 nm was measured.

[2] = tested on: murine thymocytes; assay: Inhibition of murine thymocyte proliferation (3H-thymidine incorporation); type: cell-based, C3H/HeJ mice; details: at concentrations up to 0.8 μM
Method: In order to determine the effect of the peptides on proliferation of cell types other than mink lung epithelial cells, murine thymocytes were exposed to the peptides. Proliferation was measured by determining the amount of ^3 H-thymidine incorporated into the thymocyte DNA in response to the peptides. The cell culture assay was performed as described by Ellingsworth et al., Cell. Immunol., 114:41-54 (1988). Single-cell suspensions of thymocytes were prepared from 4 to 8 week old C3H/HeJ mice and the cells were suspended in Eagle's MEM supplemented with 5% fetal calf serum (FCS), 100 units/ml penicillin, 100 μg/ml streptomycin, 2 mM L-glutamine and 50 μM β-mercaptoethanol to 6.66×10^6 cells/ml. The thymocytes were plated into 96-well microtiter plates at 10^6 cells/well (150 μl). The cells were activated with 1.0 μg/ml of phytohemagglutinin and 8 units/ml of interleukin-1 (IL-1) (Boehringer Mannheim, Indianapolis, Ind.). […] The cells were incubated at 37° C. for 72 hr in a humidified incubator in 5% CO2 -95% air atmosphere. The cells were pulsed with 0.5 μCi/well of ^3 H-thymidine 24 hours prior to cell harvest. The thymocytes were harvested onto glass fiber filters and dried. The amount of ^3 H-thymidine incorporation was determined by liquid scintillation counting method.

[3] = molecular target: TGF-β receptor
[4] = tested on: TGF-β receptor; details: for competing against the binding of 125I-TGF-β2: at concentrations of up to 30 μM; for ED50 (competition against binding of 125I-TGF-β2), in words: 25 pM 125I-TGF-β2, L6 cells

For CC[C@H](C)[C@H](NC(=O)[C@H](Cc1ccc(O)cc1)NC(=O)[C@H](CC(C)C)NC(=O)[C@H](CCC(N)=O)NC(=O)[C@H](CCCNC(=N)N)NC(=O)[C@@H](NC(=O)[C@@H](N)CSSC[C@H](N)C(=O)N[C@H](C(=O)N[C@@H](CCCNC(=N)N)C(=O)N[C@@H](CCC(N)=O)C(=O)N[C@@H](CC(C)C)C(=O)N[C@@H](Cc1ccc(O)cc1)C(=O)N[C@H](C(=O)N[C@@H](CC(=O)O)C(=O)N[C@@H](Cc1ccccc1)C(=O)N[C@@H](CCCNC(=N)N)C(=O)N[C@@H](CCCCN)C(=O)N[C@@H](CC(=O)O)C(=O)N[C@@H](CC(C)C)C(=O)NCC(=O)N[C@@H](Cc1c[nH]c2ccccc12)C(=O)N[C@@H](CCCCN)C(=O)O)[C@@H](C)CC)C(C)C)C(C)C)C(=O)N[C@@H](CC(=O)O)C(=O)N[C@@H](Cc1ccccc1)C(=O)N[C@@H](CCCNC(=N)N)C(=O)N[C@@H](CCCCN)C(=O)N[C@@H](CC(=O)O)C(=O)N[C@@H](CC(C)C)C(=O)NCC(=O)N[C@@H](Cc1c[nH]c2ccccc12)C(=O)N[C@@H](CCCCN)C(=O)O [TGF-β116-31 dimer] (I: H-CVRQLYIDFRKDLGWK-OH / II: H-CVRQLYIDFRKDLGWK-OH; disulfide I:1-II:1), which “ED50 (half-maximal inhibition of cell proliferation)” value [1] is on record?
The value was 1 to 3 µM.

What about the “effect on 3H-thymidine incorporation” value [2] of the same compound?
The value was “did not affect”.

And the Kd ([3]; read-out: apparent dissociation constant, estimated from competitive binding data, 125I-TGF-β1)?
The Kd was 10 to 15 µM.

Which “ED50 / activity in words” value [1] does the source give for CC[C@H](C)[C@H](NC(=O)[C@H](Cc1ccc(O)cc1)NC(=O)[C@H](CC(C)C)NC(=O)[C@@H]1CCCN1C(=O)[C@H](CCCNC(=N)N)NC(=O)[C@H](CC(C)C)NC(=O)[C@@H](N)CSSC[C@H](N)C(=O)N[C@@H](CC(C)C)C(=O)N[C@@H](CCCNC(=N)N)C(=O)N1CCC[C@H]1C(=O)N[C@@H](CC(C)C)C(=O)N[C@@H](Cc1ccc(O)cc1)C(=O)N[C@H](C(=O)N[C@@H](CC(=O)O)C(=O)N[C@@H](Cc1ccccc1)C(=O)N[C@@H](CCCCN)C(=O)N[C@@H](CCCNC(=N)N)C(=O)N[C@@H](CC(=O)O)C(=O)N[C@@H](CC(C)C)C(=O)NCC(=O)N[C@@H](Cc1c[nH]c2ccccc12)C(=O)N[C@@H](CCCCN)C(=O)O)[C@@H](C)CC)C(=O)N[C@@H](CC(=O)O)C(=O)N[C@@H](Cc1ccccc1)C(=O)N[C@@H](CCCCN)C(=O)N[C@@H](CCCNC(=N)N)C(=O)N[C@@H](CC(=O)O)C(=O)N[C@@H](CC(C)C)C(=O)NCC(=O)N[C@@H](Cc1c[nH]c2ccccc12)C(=O)N[C@@H](CCCCN)C(=O)O [TGF-β216-31 dimer] (I: H-CLRPLYIDFKRDLGWK-OH / II: H-CLRPLYIDFKRDLGWK-OH; disulfide I:1-II:1) here?
Its value is “not active”.

And the “effect on 3H-thymidine incorporation” value [2]?
The value was “did not affect”.

What about the “competing against the binding of 125I-TGF-β2” value (from here on “competing … of 125I-TGF-β2”) [4] of the same compound?
Its value is “either inactive or weakly active”.

For CC[C@H](C)[C@H](NC(=O)[C@@H](N)Cc1c[nH]c2ccccc12)C(=O)N[C@@H](Cc1c[nH]cn1)C(=O)N[C@@H](CCC(=O)O)C(=O)N1CCC[C@H]1C(=O)N[C@@H](CCCCN)C(=O)NCC(=O)N[C@@H](Cc1ccc(O)cc1)C(=O)N[C@@H](CC(N)=O)C(=O)N[C@@H](C)C(=O)N[C@@H](CC(N)=O)C(=O)N[C@@H](Cc1ccccc1)C(=O)N[C@@H](CSSC[C@H](NC(=O)[C@H](Cc1ccccc1)NC(=O)[C@H](CC(N)=O)NC(=O)[C@H](C)NC(=O)[C@H](CC(N)=O)NC(=O)[C@H](Cc1ccc(O)cc1)NC(=O)CNC(=O)[C@H](CCCCN)NC(=O)[C@@H]1CCCN1C(=O)[C@H](CCC(=O)O)NC(=O)[C@H](Cc1c[nH]cn1)NC(=O)[C@@H](NC(=O)[C@@H](N)Cc1c[nH]c2ccccc12)[C@@H](C)CC)C(=O)N[C@@H](C)C(=O)NCC(=O)N[C@@H](C)C(=O)O)C(=O)N[C@@H](C)C(=O)NCC(=O)N[C@@H](C)C(=O)O [TGF-β232-47 dimer] (I: H-WIHEPKGYNANFCAGA-OH / II: H-WIHEPKGYNANFCAGA-OH; disulfide I:13-II:13), which “inhibition of proliferation of mink lung epithelial cells” value [1] is on record?
Its value is “did not inhibit”.

And the “ED50 / activity in words” value [1]?
The value was “not active”.

What about the “ED50 (competition against binding of 125I-TGF-β2), in words” value [4] of the same compound?
Its value is “not active”.

And the “competing … of 125I-TGF-β2” value [4]?
Its value is “did not compete”.

CLRPLYIDFKRDLGWK [TGF-β216-31 monomer] was tested. Which “ED50 / activity in words” value [1] did it give?
The value was “not active”.

And the “ED50 (competition against binding of 125I-TGF-β2), in words” value [4]?
Its value is “not active”.

What about the “competing … of 125I-TGF-β2” value [4] of the same compound?
Its value is “either inactive or weakly active”.

How did the “inhibition of proliferation of mink lung epithelial cells” value [1] turn out when “CLRPLYIDFKRDLGWKWIHEPKGYNANFSAGA [TGF-β216-47 Ser44 monomer]” was run?
Its value is “inactive”.

What about the “ED50 / activity in words” value [1] of the same compound?
Its value is “not active”.

CVRQLYIDFRKDLGWK [TGF-β116-31 monomer] was tested. Which “ED50 / activity in words” value [1] did it give?
The value was “not active”.

And the “ED50 (competition against binding of 125I-TGF-β1), in words” value ([3]; 25 pM 125I-TGF-β1, L6 cells)?
The value was “not active”.

And the “competing against the binding of 125I-TGF-β1” value ([3]; at concentrations of up to 30 μM)?
The value was “either inactive or weakly active”.

What about the “ED50 (competition against binding of 125I-TGF-β2), in words” value [4] of the same compound?
The value was “not active”.

What about the “competing … of 125I-TGF-β2” value [4] of the same compound?
Its value is “either inactive or weakly active”.

For “I: CLRPLYIDFKRDLGWKWIHEPKGYNANFSAGA / II: CLRPLYIDFKRDLGWKWIHEPKGYNANFSAGA (disulfide I:1-II:1) [TGF-β216-47 Ser44 dimer]”, which “ED50 (half-maximal inhibition of cell proliferation)” value [1] is on record?
The value was 0.45 µM.

“I: SLRPLYIDFKRDLGWKWIHEPKGYNANFCAGA / II: SLRPLYIDFKRDLGWKWIHEPKGYNANFCAGA (disulfide I:29-II:29) [TGF-β216-47 Ser16 dimer]” was tested. Which “ED50 (half-maximal inhibition of cell proliferation)” value [1] did it give?
Its value is 0.38 µM.

“SLRPLYIDFKRDLGWKWIHEPKGYNANFCAGA [TGF-β216-47 Ser16 monomer]” was tested. Which “ED50 (half-maximal inhibition of cell proliferation)” value [1] did it give?
Its value is 1.3 µM.

Which results are given for WIHEPKGYNANFCAGA [TGF-β232-47 monomer]?
inhibition of proliferation of mink lung epithelial cells [1]: did not inhibit; ED50 / activity in words [1]: not active; ED50 (competition against binding of 125I-TGF-β2), in words [4]: not active; competing against the binding of 125I-TGF-β2 [4]: did not compete
